Out of some 360,000 compounds screened, about 520 (0.14%) were called active. The inconclusive results got no clear call from the source; some entries with a clear call stand among them for comparison. Calls follow the shape of the dose curve; as a rule, active = well fitted inhibition curve with a large enough effect; inconclusive = small, poorly fitted or top-dose-only effect; inactive = no such curve, though single readings can be large or run the other way. No potency is given beside an inconclusive call; the fits are too rough.
Molecular target: Rap guanine nucleotide exchange factor 3 (Homo sapiens) (UniProt O95398)
Experiment: qHTS for Antagonist of cAMP-regulated guanine nucleotide exchange factor 3 (EPAC1): primary screen; also: nearly all actives have a fitted effect of over 50% in size;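 as to activity change, negative = inhibition: plate controls were vehicle for no effect and positive control for full effect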
Details: EPAC1 GEF assay, Rap1b-BODIPY-GDP exchange fluorescence; activity change, negative = inhibition: at 115 µM (top of the series)
Potency is read from the fitted curve at half-maximal effect; tags tell the direction and shape of the fitted curve.

UniProt O95398, sequence (O95398 whole entry, looked up): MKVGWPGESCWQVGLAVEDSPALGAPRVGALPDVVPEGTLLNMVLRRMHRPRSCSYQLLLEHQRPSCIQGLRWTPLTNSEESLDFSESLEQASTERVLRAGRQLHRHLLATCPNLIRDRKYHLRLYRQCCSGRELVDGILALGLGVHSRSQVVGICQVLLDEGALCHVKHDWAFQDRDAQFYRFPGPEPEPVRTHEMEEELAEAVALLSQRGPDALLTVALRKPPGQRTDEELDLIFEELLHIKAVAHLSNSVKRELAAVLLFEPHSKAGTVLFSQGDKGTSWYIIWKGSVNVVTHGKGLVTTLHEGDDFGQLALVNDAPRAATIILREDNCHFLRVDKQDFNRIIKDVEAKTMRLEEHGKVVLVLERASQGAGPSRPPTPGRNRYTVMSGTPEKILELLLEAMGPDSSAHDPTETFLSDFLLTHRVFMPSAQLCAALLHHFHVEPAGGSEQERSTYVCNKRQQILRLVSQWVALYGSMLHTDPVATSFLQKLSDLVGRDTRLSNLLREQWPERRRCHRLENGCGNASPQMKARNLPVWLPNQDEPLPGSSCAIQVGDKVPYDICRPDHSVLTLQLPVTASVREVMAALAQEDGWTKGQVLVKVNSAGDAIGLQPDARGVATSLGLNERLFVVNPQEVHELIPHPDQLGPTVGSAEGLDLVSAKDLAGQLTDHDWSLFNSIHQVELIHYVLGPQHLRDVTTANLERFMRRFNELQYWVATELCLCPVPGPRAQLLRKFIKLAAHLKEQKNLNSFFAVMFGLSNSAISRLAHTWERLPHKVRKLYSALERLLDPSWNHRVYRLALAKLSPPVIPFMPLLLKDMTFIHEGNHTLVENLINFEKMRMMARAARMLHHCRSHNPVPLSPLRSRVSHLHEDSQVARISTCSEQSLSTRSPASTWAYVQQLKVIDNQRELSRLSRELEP

| SMILES | Potency | activity change, negative = inhibition |
| --- | --- | --- |
| COc1ccc(NC(=O)CN(C)C(=O)CSc2ccc(Br)cc2)cc1 | inconclusive [inhibitor, partial curve, poor fit] |  |
| COc1ccc(CCNC(=O)CSc2nnc3ccc(-c4cccnc4)nn23)cc1OC | inconclusive [inhibitor, single point] |  |
| CN(C(=S)NC(=O)C12CC3CC(CC(C3)C1)C2)c1ccc(O)cc1 | inconclusive [inhibitor, partial curve, poor fit] |  |
| COc1ccc(/C=N/NC(=O)c2ccc(N(C)S(=O)(=O)c3ccccc3)cc2)cc1OC | inconclusive [inhibitor, partial curve] |  |
| Cc1cccc(C)c1NC(=O)CN(C)C(=O)c1ccc(-n2cncn2)c([N+](=O)[O-])c1 | inconclusive [inhibitor, partial curve, poor fit] |  |
| COc1cc(/C=C/C(=O)O)cc(S(=O)(=O)Nc2ccc3c(c2)OCO3)c1OC | inconclusive [inhibitor, partial curve] |  |
| CC1CCC(NC(=O)c2ccc3snnc3c2)CC1 (centres undefined) | inconclusive [inhibitor, full curve, poor fit] |  |
| CCOC(=O)C1CCCN(C(=O)c2cc(-c3ccco3)nc3ccccc23)C1 (centres undefined) | inconclusive [inhibitor, partial curve] |  |
| CCc1cc2c(SCC(=O)NC(=O)c3cccn3C)ncnc2s1 |  | inactive: -16.5% |
| COc1ccccc1Nc1nc(N)nc(CN2CCC(C)CC2)n1 | inconclusive [inhibitor, single point] |  |
| Cc1ccc(C)c(S(=O)(=O)Nc2cc(SCC(=O)O)c(O)c3ccccc23)c1 | inconclusive [inhibitor, partial curve] |  |
| COc1ccc(-c2[nH]c(-c3ccc(SC)cc3)nc2SCC(=O)Nc2nccs2)cc1 | active: 70.8 µM |  |
| CCCCCCCCNC(=O)/C(C#N)=C/c1ccccc1[N+](=O)[O-] | inconclusive [inhibitor, full curve, poor fit] |  |
| Cc1ccc(Cc2c(-c3ccc(Cl)cc3)nc3cc(C)c(Br)c(C)n23)cc1 | inconclusive [inhibitor, partial curve, poor fit] |  |
| O=C(c1ccc(S(=O)(=O)c2cccc(Cl)c2)c([N+](=O)[O-])c1)N1CCN(c2ccccn2)CC1 | inconclusive [inhibitor, partial curve, poor fit] |  |
| C#CC(c1ccccc1)(c1ccccc1)n1ccnc1 |  | inactive: 23.4% |
| COc1ccc(C(=O)/C=C/C(=O)N(Cc2ccccc2OC)C(C(=O)NC2CCCCC2)c2ccncc2)c(O)c1 (centres undefined) | inconclusive [inhibitor, partial curve] |  |
| COc1cccc(/C=N/Nc2cc(Cl)nc(C)n2)c1O | inconclusive [inhibitor, single point] |  |
| O=C(CSc1nnc2scc(-c3ccccc3)n12)Nc1nsc(-c2ccccc2)n1 | inconclusive [inhibitor, single point] |  |
| O=C1/C(=N\S(=O)(=O)c2cccs2)C([n+]2ccccc2)=C([O-])c2ccccc21 |  | inactive: -9.32% |

| SMILES | Potency | activity change, negative = inhibition |
| --- | --- | --- |
| CC(C)[C@H](NC(=O)OCc1ccccc1)C(=O)OCC(=O)NCCc1ccccc1 | inconclusive [inhibitor, single point] |  |
| Cc1cc(CN2CCCC(CNC(=O)c3ccc(F)cc3)C2)cc(C)c1O (centres undefined) | inconclusive [inhibitor, full curve, poor fit] |  |
| COc1ccc(/C=C/C(=O)c2ccc(Cl)s2)cc1O | inconclusive [inhibitor, single point] |  |
| CC(=O)Nc1ccc(S(=O)(=O)NCCS(=O)(=O)N2CCN(c3ccccc3F)CC2)cc1 | inconclusive [inhibitor, single point] |  |
| Nc1ccc(C(=O)NCCCSc2ccccc2)cc1[N+](=O)[O-] | inconclusive [inhibitor, single point] |  |
| COC(=O)[C@@]1(Cc2ccc(F)cc2)[C@H]2c3cc(C(=O)N(C)C)n(CC4CC4)c3C[C@H]2CN1C(=O)c1ccccc1 | inconclusive [inhibitor, single point] |  |
| O=C(COC(=O)C1Cc2ccccc2CN1C(=O)c1ccccc1)Nc1ccc(SC(F)F)cc1 (centres undefined) | inconclusive [inhibitor, partial curve] |  |
| CCCCCC/C=N/Nc1nnc(Cc2ccc(OC)c(OC)c2)c(=O)[nH]1 | inconclusive [inhibitor, full curve] |  |
| C=CCc1cc(/C=C/c2nc(O)c([N+](=O)[O-])c(=O)[nH]2)cc(OC)c1O | inconclusive [inhibitor, partial curve] |  |
| O=C(O)C(c1ccccc1)N1C(=O)c2ccccc2C1=O (centres undefined) | inconclusive [inhibitor, single point] |  |
| Nc1nonc1-c1noc(CCCN2C(=O)c3ccccc3C2=O)n1 |  | inactive: 3.55% |
| COc1ccc(NC(=O)CSc2ccc3c4c(cccc24)C(=O)c2ccccc2-3)cc1 |  | inactive: 17.4% |
| COc1cccc(C(NC(C)=O)c2nc(-c3cccc(C(C)C)c3)cs2)c1 (centres undefined) |  | inactive: -7.12% |
| O=C(O)c1cc(-c2ccc(/C=N/Nc3ccc([N+](=O)[O-])cn3)o2)ccc1Cl | inconclusive [inhibitor, single point] |  |
| O=C(Oc1ccc(C(=S)N2CCOCC2)cc1)c1ccc(Br)cc1 |  | inactive: -4.97% |
| COc1ccc(S(=O)(=O)N2CCOCC2)cc1NC(=O)CSc1nnc2c(n1)[nH]c1ccccc12 | inconclusive [inhibitor, partial curve] |  |
| CCn1c(-c2ccccc2)c(C(=O)CCl)c2ccccc21 | inconclusive [inhibitor, partial curve] |  |
| CC(=O)c1c2c3c(c(Br)ccc3n(C)c1=O)C(=O)c1ccccc1-2 | inconclusive [inhibitor, partial curve] |  |
| O=C(CCN1C(=O)/C(=C\C=C\c2ccccc2)SC1=S)Nc1cccc(C(=O)O)c1 | inconclusive [inhibitor, partial curve] |  |

Source: PubChem BioAssay AID720709 (National Center for Advancing Translational Sciences (NCATS), 2013)
